Experimental data reported in PubChem BioAssay AID889 (National Center for Advancing Translational Sciences (NCATS), 2007).
Screen size: about 75,000 compounds; about 15 (0.02%) were called active. Inconclusive results, whose numbers are uncertain, are shown with a selection of clear calls. The call rests on the fitted dose curve; in most records, active means well fitted inhibition curve with a large enough effect in the main read-out, with a control signal flat (not every such curve was filed as active); inconclusive means small, poorly fitted or top-dose-only effect, or a change in a side signal; inactive means flat fitted curve, though single readings scatter. A potency beside an inconclusive call is a rough fit, not a confirmed value. A note “side channel” means that the fit belongs to a control or component signal, not to the main read-out.

Biological target: Caspase-7 (Homo sapiens) (UniProt P55210)
Experiment: qHTS Assay for Allosteric/Competitive Inhibitors of Caspase-7; on activity change, negative = inhibition: % of control where 0% means no effect
Details: recombinant caspase-7, Ac-DEVD-AFC fluorescence rate; activity change, negative = inhibition: at 57.5 µM (top of the series) unless noted
Potency means the concentration at half of the fitted maximal effect; tags describe the fitted curve by direction and shape or compound fluorescence and quenching.

Sequence of UniProt P55210 (P55210 whole entry, looked up): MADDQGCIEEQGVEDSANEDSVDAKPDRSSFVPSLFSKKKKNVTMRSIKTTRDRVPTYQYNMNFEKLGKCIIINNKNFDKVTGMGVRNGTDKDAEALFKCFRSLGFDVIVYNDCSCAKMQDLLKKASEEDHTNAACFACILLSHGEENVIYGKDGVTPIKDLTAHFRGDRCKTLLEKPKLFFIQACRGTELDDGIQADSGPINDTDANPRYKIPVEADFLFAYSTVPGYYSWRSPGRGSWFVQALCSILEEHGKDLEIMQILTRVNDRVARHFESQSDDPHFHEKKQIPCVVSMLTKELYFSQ

Activity change, negative = inhibition, inactive:
COc1cc(/C=C(\C#N)C(=O)c2ccc(O)c(O)c2)cc(I)c1O 1.29%, O=S(=O)(NC1CCCC1)c1ccc(S(=O)(=O)NC2CCCC2)cc1 1.27%, Nc1cc(-c2cccc(F)c2)nn1S(=O)(=O)c1cccc2nsnc12 -4.8%, COc1ccc(S(=O)(=O)n2nc(-c3cc(OC)c(OC)c(OC)c3)cc2N)cc1OC 1.23%, O=C(c1ccccc1)N1CCN(c2ccc(NCc3ccc4c(c3)OCO4)cc2)CC1 -3.41%, OCCN(CO)CO -1.95% [at 11.5 µM], c1ccc2c(c1)ccc1cc3c(ccc4ccccc43)cc12 -17.9%, O=C(c1csnn1)N1CCC2(CCCN(c3cccc(-c4ccccc4)c3)C2)CC1 -3.53%, Cc1ccsc1C1CC(=O)NC2=C1C(=O)CC(C)(C)C2 (configuration not stated) 2.95%, CC1CCN(C(=O)COC(=O)c2cc3ccccc3cc2O)CC1 -1.28%, CC(=O)NC(CCS(C)(=O)=O)C(=O)Nc1cccc(C)c1 (configuration not stated) 0.723%

Potency, inconclusive:
CCCC1C2CN(C(C)C)CC=C2C(C#N)=C(N)C1(C#N)C#N (configuration not stated) 15.8 µM [fluorescent, partial curve], CCNc1ncc2nc(-c3ccc(OC)cc3)c(=O)n(CCOC)c2n1 1.26 µM [fluorescent, side channel, full curve], COCCn1c(=O)c(-c2ccc(Cl)cc2)nc2cnc(Oc3cccc(Cl)c3)nc21 25.1 µM [fluorescent, partial curve], Cc1nn(Cc2ccccc2)c(C)c1NC(=O)c1cc2nc(-c3ccco3)cc(C(F)(F)F)n2n1 31.6 µM [inhibitor, single point], Cn1c(=O)c(-c2ccc(Cl)cc2)nc2cnc(Nc3ccccc3)nc21 2.51 µM [inhibitor, partial curve], O=c1oc(-c2cccs2)nc2sc3c(c12)CCC3 3.98 µM [inhibitor, full curve], COC(=O)Cc1c(C)c2cc(Cl)c(OC(=O)c3ccco3)cc2oc1=O 10 µM [fluorescent, side channel, partial curve], CCN(CC)c1ccc(C2C(C(=O)Nc3ccccn3)=C(C)NC3=C2C(=O)CC(C)(C)C3)cc1 (configuration not stated) 25.1 µM [fluorescent, partial curve], c1ccc2nc3c(nc2c1)[nH]c1ccccc13 25.1 µM [inhibitor, single point], CCOC(=O)c1cnn2c(C(F)(F)F)cc(-c3ccccc3)nc12 31.6 µM [inhibitor, single point], Cn1c(=O)c(-c2cccs2)nc2cnc(OCc3ccccc3)nc21 6.31 µM [fluorescent, partial curve], CCC1c2ccc(C)n2CCN1C(=O)Nc1ccc(F)cc1 (configuration not stated) 25.1 µM [inhibitor, single point], Cc1nc2cnc(N(C)C)nc2n(C[C@H]2CCCO2)c1=O 15.8 µM [fluorescent, partial curve], N=c1c(S(=O)(=O)c2ccccc2)cc2c(=O)n3ccccc3nc2n1Cc1ccco1 1.58 µM [fluorescent, side channel, full curve], C=CCn1c(=N)c(C(=O)NCCCOC)cc2c(=O)n3cccc(C)c3nc21 3.98 µM [fluorescent, side channel, partial curve], CCOc1ccc2nc3ccc4[nH]onc4c3c2c1 25.1 µM [fluorescent, partial curve], O=c1c2ccccc2nc2ccc(NCc3ccco3)nn12 25.1 µM [inhibitor, single point], FC(F)(F)c1cc(NC(=S)N2c3ccccc3-n3cccc3[C@H]2c2cccnc2)cc(C(F)(F)F)c1 3.98 µM [fluorescent, single point], O=c1ccc2c(o1)/C(=C/C=C(Cl)Cl)CCC2 12.6 µM [inhibitor, partial curve], Cc1ccc(N2C(=O)[C@@H]3[C@H](C2=O)C2c4ccccc4C=CN2[C@@H]3C(=O)c2ccco2)cc1 (some centres not stated) 10 µM [inhibitor, partial curve], Cn1nnnc1SCc1ccc(C(=O)Nc2nccs2)cc1 15.8 µM [fluorescent, partial curve], NC(=O)c1cc2ccc(O)cc2oc1=NCc1ccccc1 2.51 µM [fluorescent, side channel, partial curve], COCCCn1c(=NC(=O)c2ccc3c(c2)OCO3)c(C#N)cc2c(=O)n3cccc(C)c3nc21 3.16 µM [fluorescent, full curve], COc1ccc2nc(N3CCCC(O)C3)c(C#N)cc2c1 (configuration not stated) 12.6 µM [fluorescent, side channel, partial curve], COc1ccc(-c2nc3cnc(Oc4cccc(Cl)c4)nc3n(C[C@H]3CCCO3)c2=O)cc1 10 µM [fluorescent, side channel, partial curve], COc1ncc2nc(-c3cc(F)cc(F)c3)c(=O)n(CCc3ccccc3)c2n1 10 µM [fluorescent, side channel, partial curve], Cc1ccc(S(=O)(=O)c2c(N)n(Cc3ccco3)c3nc4ccccc4nc23)cc1 25.1 µM [fluorescent, partial curve], CC1(C)CC(=O)C2=C(C1)Nc1ccccc1N=C2 25.1 µM [fluorescent, partial curve], N#Cc1cccc(-c2nc3cnc(N4CCOCC4)nc3n(Cc3ccc(F)cc3)c2=O)c1 2 µM [fluorescent, partial curve], Cc1cccn2c(=O)c3cc(C(=O)NC(C)c4ccccc4)c(=N)n(CCCn4ccnc4)c3nc12 (configuration not stated) 12.6 µM [fluorescent, side channel, partial curve]

Potency, active:
CCCCCCC(=O)N1CCC(c2nc3c(nnn3Cc3ccccc3Cl)c(=O)[nH]2)CC1 12.6 µM
